Reference: PubChem BioAssay AID686979 (National Center for Advancing Translational Sciences (NCATS), 2013)
About 50,000 (12%) of roughly 420,000 compounds were called active. Inconclusive means that the source gave no clear call. Such entries were picked first, then a sample of the others. Calls follow the shape of the dose curve; as a rule, active = well fitted inhibition curve with a large enough effect; inconclusive = small, poorly fitted or top-dose-only effect; inactive = flat fitted curve, though single readings scatter. Potencies of inconclusive entries are left out as doubtful fits.
% is scaled to controls: 0 for no effect and ±100 for the full control effect; potency is read from the fitted curve at half-maximal effect; tags tell the direction and shape of the fitted curve.

Experiment: qHTS for Inhibitors of human tyrosyl-DNA phosphodiesterase 1 (TDP1): qHTS in cells in presence of CPT; also: nearly all actives have a fitted effect of over 55% in size
Details: chicken DT40 Tdp1-/-;hTDP1 cells + 20 nM CPT, ATP luminescence, 48 h; activity change, negative = growth inhibition: at 46.2 µM (top of the series) unless noted
Outline: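 Chicken DT40 Tdp1-/- cells stably complemented with human TDP1 were seeded at 400 cells/well in medium containing 20 nM camptothecin, exposed to pin-transferred compounds, and grown at 37 °C for at least 48 hr. Viability was read as ATP luminescence.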
In the case of `CCc1sc(C(=O)N2CCc3ccccc32)cc1C`, the Potency is reported as inconclusive [inhibitor, single point]. In the case of `O=Cc1cc2ccccc2nc1SCc1ccc(Cl)cc1`, the Potency is reported as active: 1.03 µM. In the case of `COc1ccc2cc(CN(C)C(=O)CN3C(=O)NC4(CCCC4)C3=O)ccc2c1`, the Potency is reported as inconclusive [inhibitor, single point]. With `Cc1cc(C)c(-c2n[nH]c3c2C(c2ccccc2F)N(CCO)C3=O)c(O)c1` (configuration not stated) the Potency was inconclusive [inhibitor, single point]. In the case of `CCCOC(=O)c1c(-c2ccccc2)c(-c2ccccc2)nn(C)c1=O`, the Potency is reported as active: 20.6 µM. For `CCCC(C)c1nnc(NC(=O)CCS(=O)(=O)Cc2ccccc2)s1` (configuration not stated), the Potency was inconclusive [inhibitor, partial curve]. With `Cc1ccc(S(=O)(=O)Nc2ccc(O)c(Sc3ncn[nH]3)c2)cc1` the Potency was “inactive”. For `Cc1cccc(N2CCN(S(=O)(=O)c3ccc4c(c3)CCC(=O)N4)CC2C)c1` (configuration not stated), the Potency was “inactive”. With `CC(=O)c1c(C)n(-c2cccc(Cl)c2)c2ccc(OC(=O)c3ccccc3)cc12` the Potency was inconclusive [inhibitor, single point]. In the case of `Cc1ccc(S(=O)(=O)N2CCCC2C(=O)Nc2nc3c(s2)CCCC3)cc1` (configuration not stated), the Potency is reported as inconclusive [inhibitor, single point]. In the case of `Cc1cc(NC(=O)CCS(=O)(=O)c2ccc3c(c2)NC(=O)C(C)S3)ccc1Br` (configuration not stated), the Potency is reported as inconclusive [inhibitor, single point]. With `CCSc1ncc(Cl)c(C(=O)Nc2cc(C)ccc2C)n1` the Potency was “inactive”. For `COc1ccc(Oc2ncc3nc(-c4ccc(Cl)cc4)c(=O)n(C[C@H]4CCCO4)c3n2)cc1`, the Potency was “inactive”. In the case of `COc1cccc(C(NC(C)=O)c2nc(-c3cc4ccccc4o3)cs2)c1` (configuration not stated), the Potency is reported as inconclusive [inhibitor, single point]. For `CC1=NS(=O)(=O)c2cc(Cl)ccc2N1`, the Potency was inconclusive [inhibitor, single point]. For `COc1cccc(NC(=O)CSc2nc(=O)[nH]c3c2CCCC3)c1`, the Potency was inconclusive [inhibitor, single point]. With `COc1ccccc1CNCC(O)Cn1c2ccccc2c2ccccc21` (configuration not stated) the Potency was inconclusive [inhibitor, single point]. In the case of `O=C(NCCc1ccc(C(F)(F)F)cc1)C1CC(=O)N(c2ccc3c(c2)OCCO3)C1` (configuration not stated), the Potency is reported as inconclusive [inhibitor, single point]. In the case of `O=C(Cc1c(C(=O)O)[nH]c2ccc(Cl)cc12)Nc1ccc2c(c1)OCCO2`, the Potency is reported as “inactive”. For `COc1ccc(-c2[nH]c(-c3ccc(C)cc3)nc2SCC(=O)NCC2CCCO2)cc1` (configuration not stated), the Potency was inconclusive [inhibitor, single point]. With `O=c1c2cccc3c2c(nn1CN1CCOCC1)-c1ccccc1-3` the Potency was inconclusive [inhibitor, single point]. For `CC12CC(NC(=O)N1Cc1ccccc1)c1ccccc1O2` (configuration not stated), the Potency was inconclusive [inhibitor, single point]. For `COc1ccc(C(=O)COC(=O)c2ccc3ccccc3n2)cc1`, the Potency was active: 20.6 µM. For `COC(=O)CSc1snnc1-c1ccc(F)cc1`, the Potency was “inactive”. For `COc1ccccc1Cn1c(=S)[nH]c2cc(C(=O)N3CCN(c4ccccc4OC)CC3)ccc2c1=O`, the Potency was inconclusive [inhibitor, single point]. With `CC(=O)Nc1cc(-c2ccccc2N(C)C)cn2c(-c3cccc(C(F)(F)F)c3)cnc12` the Potency was inconclusive [inhibitor, single point]. For `COC(=O)Oc1ccc(/C=N/NC(=O)CSCc2ccc(Cl)cc2)cc1OC`, the Potency was active: 25.9 µM. For `CC(C)(C)NC(=O)CC1C(=O)NCCN1Cc1c(F)cccc1Cl` (configuration not stated), the Potency was “inactive”. In the case of `COCCn1ccc2c(OCC(=O)NCCc3ccccc3)cccc2c1=O`, the Potency is reported as “inactive”. In the case of `CCOC(=O)N1CCN(S(=O)(=O)c2ccc(C)c(C)c2)CC1`, the activity change, negative = growth inhibition is reported as inconclusive: -32.1% [inhibitor]. For `CCOC(=O)c1c(-c2ccccc2)csc1NC(=O)CSc1nnnn1C`, the Potency was active: 17.8 µM. With `COCCCn1cnc2c(c1=O)c1nc3ccccc3nc1n2CCc1ccccc1` the Potency was inconclusive [inhibitor, single point]. In the case of `Cc1ccc(S(=O)(=O)/N=C2\C=C(NS(=O)(=O)c3ccccc3)C(=O)c3ccccc32)c(C)c1`, the Potency is reported as active: 14.6 µM. With `Cc1nnc(C)c2c(C)n(-c3ccccc3N)c(C)c12` the Potency was active: 20.6 µM. For `COc1cc(/C=N\Nc2nc3ccccc3o2)cc(OC)c1OC`, the Potency was inconclusive [inhibitor, single point]. With `COc1cnc(-c2ccccn2)nc1Sc1ccc(F)cc1` the Potency was active: 0.58 µM. In the case of `CCOc1ccc(NC(=O)CN(C)C(=O)c2cc(-c3ccc(OC)cc3)nc3ccccc23)cc1OCC`, the Potency is reported as inconclusive [inhibitor, single point]. For `COC(=O)c1ccc(/C(O)=C(\C#N)c2nc3ccccc3s2)cc1`, the Potency was inconclusive [inhibitor, partial curve]. In the case of `COC(=O)c1cc(NC(=O)Cc2ccc(OC)c(OC)c2)cc(C(=O)OC)c1`, the Potency is reported as inconclusive [inhibitor, single point]. With `CCCCOc1cccc(-c2nnc(NC(=O)CSc3ccc(C)cc3)s2)c1` the Potency was inconclusive [inhibitor, single point]. With `CCOC(=O)/C(=N/Nc1ccc(C)cc1)S(=O)(=O)c1ccc(Cl)cc1` the Potency was active: 16.4 µM. For `CCOc1ccc(-c2cc3nc(C4CCN(C(=O)OC(C)(C)C)CC4)c(C(=O)Nc4cccc(C(F)(F)F)c4)cn3n2)cc1`, the Potency was active: 16.4 µM. For `Cc1nc2cccnc2n1-c1cccc(C(=O)NCc2cccc(Cl)c2)c1`, the Potency was active: 20.6 µM. For `COc1cc(C(=O)N=c2sccn2C)c([N+](=O)[O-])cc1OC`, the Potency was “inactive”. With `CC(Oc1ccc(C#N)cc1)C(=O)N1CC=C(c2ccccc2)CC1` (configuration not stated) the Potency was inconclusive [inhibitor, single point]. In the case of `COc1ccc(-c2nc(-c3ccccc3OC)no2)cc1OC`, the Potency is reported as inconclusive [inhibitor, single point]. In the case of `CCCCCOC(=O)CSc1nc2sc3c(c2c(=O)n1Cc1ccccc1)CC(C)(CC)OC3` (configuration not stated), the Potency is reported as inconclusive [inhibitor, single point]. For `CC(=O)NC(=S)Nc1ccccc1N1CCN(C(=O)c2ccccc2)CC1`, the Potency was “inactive”. In the case of `CCS(=O)(=O)N1CC(=O)N(c2cc(Cl)ccc2C)C(C)(C(=O)NC2CCCCCC2)C1` (configuration not stated), the Potency is reported as inconclusive [inhibitor, single point]. For `O=S(=O)(c1cccs1)N1CCCCC1`, the Potency was “inactive”. In the case of `Cc1ccccc1OCC(=O)Nc1ccc2c(c1)n(C)c(=O)n2C`, the Potency is reported as inconclusive [inhibitor, single point]. In the case of `c1csc(CNc2ccn3nc(-c4ccc(OCCN5CCOCC5)cc4)cc3n2)c1`, the Potency is reported as active: 20.6 µM. For `CCN(C[C@H]1N[C@@](Cc2ccccc2)(C(=O)OC)[C@H]2C(=O)N(C)C(=O)[C@@H]12)C(=O)Nc1ccccc1`, the Potency was “inactive”. In the case of `COC(=O)c1ccc(-c2c(-c3ccccc3)ncc3cc(F)ccc23)cc1`, the Potency is reported as active: 13 µM. For `Cc1ccc(-n2c(=O)c3c4c(sc3n(CC(=O)C(C)(C)C)c2=O)CCCCC4)cc1C`, the Potency was inconclusive [inhibitor, single point]. With `COc1cc(C#N)ccc1OCC(=O)Nc1cccc(S(=O)(=O)N2CCCC2)c1` the Potency was inconclusive [inhibitor, single point]. For `CCCCn1c(N)c(N(CCOC)C(=O)CCCc2nc3ccccc3c(=O)[nH]2)c(=O)[nH]c1=O`, the Potency was “inactive”. For `Cc1cc(SCC(=O)N/N=C/c2ccc(C(=O)O)cc2)nc2ccccc12`, the Potency was “inactive”. For `CCn1ncc(C2=NOC(C(=O)NCc3ccc(Cl)cc3)C2)c1C` (configuration not stated), the Potency was active: 5.8 µM. In the case of `CCOc1ccc2nc(/N=C/c3c(C)[nH]n(-c4ccccc4)c3=O)sc2c1`, the Potency is reported as inconclusive [inhibitor, single point]. With `O=C(COc1ccc(Br)cc1)c1ccc2c(c1)CCCC2` the Potency was inconclusive [inhibitor, partial curve, poor fit]. For `COc1ccc(/C=C\C(=O)c2c(O)ccc3c(C)cc(=O)oc23)cc1`, the Potency was “inactive”. With `COc1ccc(-c2nc3scc(CCNS(=O)(=O)c4cccs4)n3n2)cc1` the Potency was active: 20.6 µM. With `COc1ccc(CNC(=O)CCc2c(C)nn(-c3ccc(N4CCCC4)nn3)c2C)cc1` the Potency was inconclusive [inhibitor, full curve, poor fit]. In the case of `Cc1ccc(Cc2nnc(SCC(=O)Nc3ccccc3)n(N)c2=O)cc1`, the Potency is reported as “inactive”. For `CCCCNC(=O)CN(CCc1ccccc1)S(C)(=O)=O`, the Potency was inconclusive [inhibitor, single point]. With `COc1ccc(CNC(=S)Nc2cccc(Cl)c2)cc1` the Potency was inconclusive [inhibitor, single point]. With `COc1ccc(N2C(=O)[C@H]3[C@@H](C2=O)C2c4ccccc4C=NN2[C@H]3C(=O)C(C)(C)C)cc1` (some centres not stated) the Potency was “inactive”. With `Cc1cc(C(=O)COc2cccnc2[N+](=O)[O-])c(C)n1Cc1cccs1` the Potency was inconclusive [inhibitor, partial curve]. With `COc1ccccc1C(=O)O/N=C(/c1ccncc1)c1ccc([N+](=O)[O-])cc1` the Potency was “inactive”. In the case of `Cc1cccc(C(=O)NC(=S)NCc2cccnc2)c1`, the Potency is reported as “inactive”. With `Cc1cccc(Nc2c([N+](=O)[O-])c(=O)n(C)c3ccccc23)c1` the Potency was inconclusive [inhibitor, partial curve, poor fit].
